The list shows a part of the results.
Key:
Experiment in all cases: glycan array binding signal (z-score within array); higher = stronger binding
Details in all cases: glycan notation: IUPAC condensed, linker removed
Gal(b1-2)Gal = molecular target: Gal(b1-2)Gal
How it was run: (§1)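 Glycan array data came from 3228 arrays in the Consortium for Functional Glycomics database, and only arrays with an available protein sequence were kept. Glycan names were put into IUPAC-condensed notation, and columns mapping to the same glycan were averaged. The binding signal is a within-array Z-score, averaged across arrays of one protein sequence run at different concentrations or buffers and across linkers. A negative Z-score can be read as non-binding.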

Gal(b1-3)Gal = molecular target: Gal(b1-3)Gal
How it was run: as §1

Gal(b1-3)Gal(b1-4)GlcNAc = molecular target: Gal(b1-3)Gal(b1-4)GlcNAc
How it was run: as §1

[1] = molecular target: Gal(b1-3)Gal(b1-4)GlcNAc(b1-2)Man(a1-3)[Gal(b1-3)Gal(b1-4)GlcNAc(b1-2)Man(a1-6)]Man(b1-4)GlcNAc(b1-4)GlcNAc
How it was run: as §1

Gal(b1-3)GalNAc = molecular target: Gal(b1-3)GalNAc
How it was run: as §1

[2] = molecular target: Gal(b1-3)GalNAc(a1-3)[Fuc(a1-2)]Gal(b1-4)Glc
How it was run: as §1

[3] = molecular target: Gal(b1-3)GalNAc(a1-3)[Fuc(a1-2)]Gal(b1-4)GlcNAc
How it was run: as §1

[4] = molecular target: Gal(b1-3)GalNAc(b1-3)Gal(a1-4)Gal(b1-4)Glc
How it was run: as §1

[5] = molecular target: Gal(b1-3)GalNAc(b1-4)Gal(b1-4)Glc
How it was run: as §1

[6] = molecular target: Gal(b1-3)GalNAc(b1-4)[Neu5Ac(a2-3)]Gal(b1-4)Glc
How it was run: as §1

Gal(b1-3)GlcNAc = molecular target: Gal(b1-3)GlcNAc
How it was run: as §1

[7] = molecular target: Gal(b1-3)GlcNAc(b1-2)Man(a1-3)[Gal(b1-3)GlcNAc(b1-2)Man(a1-6)]Man(b1-4)GlcNAc(b1-4)GlcNAc
How it was run: as §1

[8] = molecular target: Gal(b1-3)GlcNAc(b1-2)Man(a1-3)[Gal(b1-3)GlcNAc(b1-2)Man(a1-6)]Man(b1-4)GlcNAc(b1-4)[Fuc(a1-6)]GlcNAc
How it was run: as §1

[9] = molecular target: Gal(b1-3)GlcNAc(b1-3)Gal(b1-3)GlcNAc
How it was run: as §1

[10] = molecular target: Gal(b1-3)GlcNAc(b1-3)Gal(b1-4)Glc
How it was run: as §1

[11] = molecular target: Gal(b1-3)GlcNAc(b1-3)Gal(b1-4)GlcNAc
How it was run: as §1

[12] = molecular target: Gal(b1-3)[Fuc(a1-4)]GlcNAc
How it was run: as §1

[13] = molecular target: Gal(b1-3)[Fuc(a1-4)]GlcNAc(b1-2)Man(a1-3)[Gal(b1-3)[Fuc(a1-4)]GlcNAc(b1-2)Man(a1-6)]Man(b1-4)GlcNAc(b1-4)GlcNAc
How it was run: as §1

[14] = molecular target: Gal(b1-3)[Fuc(a1-4)]GlcNAc(b1-2)Man(a1-3)[Gal(b1-3)[Fuc(a1-4)]GlcNAc(b1-2)Man(a1-6)]Man(b1-4)GlcNAc(b1-4)[Fuc(a1-6)]GlcNAc
How it was run: as §1

[15] = molecular target: Gal(b1-3)[Fuc(a1-4)]GlcNAc(b1-3)Gal(b1-3)[Fuc(a1-4)]GlcNAc
How it was run: as §1

[16] = molecular target: Gal(b1-3)[Fuc(a1-4)]GlcNAc(b1-3)Gal(b1-4)GlcNAc
How it was run: as §1

[17] = molecular target: Gal(b1-3)[Fuc(a1-4)]GlcNAc(b1-3)Gal(b1-4)[Fuc(a1-3)]GlcNAc
How it was run: as §1

[18] = molecular target: Gal(b1-3)[GlcNAc(b1-6)]GalNAc
How it was run: as §1

[19] = molecular target: Gal(b1-3)[Neu5Ac(a2-6)]GalNAc
How it was run: as §1

[20] = molecular target: Gal(b1-3)[Neu5Ac(a2-6)]GlcNAc(b1-6)Gal(b1-4)Glc
How it was run: as §1

[21] = molecular target: Gal(b1-3)[Neu5Ac(b2-6)]GalNAc
How it was run: as §1

[22] = molecular target: Gal(b1-4)GalNAc(a1-3)[Fuc(a1-2)]Gal(b1-4)GlcNAc
How it was run: as §1

[23] = molecular target: Gal(b1-4)GalNAc(b1-3)[Fuc(a1-2)]Gal(b1-4)GlcNAc
How it was run: as §1

Gal(b1-4)Glc = molecular target: Gal(b1-4)Glc
How it was run: as §1

Gal(b1-4)Glc6S = molecular target: Gal(b1-4)Glc6S
How it was run: as §1

Gal(b1-4)GlcNAc = molecular target: Gal(b1-4)GlcNAc
How it was run: as §1

[24] = molecular target: Gal(b1-4)GlcNAc(a1-6)Gal(b1-4)GlcNAc
How it was run: as §1

[25] = molecular target: Gal(b1-4)GlcNAc(b1-2)Man(a1-3)Man(b1-4)GlcNAc(b1-4)GlcNAc
How it was run: as §1

[26] = molecular target: Gal(b1-4)GlcNAc(b1-2)Man(a1-3)[Gal(b1-4)GlcNAc(b1-2)Man(a1-6)]Man(b1-4)GlcNAc(b1-4)GlcNAc
How it was run: as §1

[27] = molecular target: Gal(b1-4)GlcNAc(b1-2)Man(a1-3)[Gal(b1-4)GlcNAc(b1-2)Man(a1-6)]Man(b1-4)GlcNAc(b1-4)[Fuc(a1-6)]GlcNAc
How it was run: as §1

[28] = molecular target: Gal(b1-4)GlcNAc(b1-2)Man(a1-3)[Man(a1-6)]Man(b1-4)GlcNAc(b1-4)GlcNAc
How it was run: as §1

[29] = molecular target: Gal(b1-4)GlcNAc(b1-2)Man(a1-6)Man(b1-4)GlcNAc(b1-4)GlcNAc
How it was run: as §1

[30] = molecular target: Gal(b1-4)GlcNAc(b1-2)Man(a1-6)[Man(a1-3)]Man(b1-4)GlcNAc(b1-4)GlcNAc
How it was run: as §1

[31] = molecular target: Gal(b1-4)GlcNAc(b1-2)[Gal(b1-4)GlcNAc(b1-4)]Man(a1-3)[Gal(b1-4)GlcNAc(b1-2)Man(a1-6)]Man(b1-4)GlcNAc(b1-4)GlcNAc
How it was run: as §1

[32] = molecular target: Gal(b1-4)GlcNAc(b1-3)Gal(b1-3)GlcNAc
How it was run: as §1

[33] = molecular target: Gal(b1-4)GlcNAc(b1-3)Gal(b1-4)Glc
How it was run: as §1

[34] = molecular target: Gal(b1-4)GlcNAc(b1-3)Gal(b1-4)GlcNAc
How it was run: as §1

[35] = molecular target: Gal(b1-4)GlcNAc(b1-3)Gal(b1-4)GlcNAc(b1-3)Gal(b1-4)GlcNAc
How it was run: as §1

[36] = molecular target: Gal(b1-4)GlcNAc(b1-3)Gal(b1-4)[Fuc(a1-3)]GlcNAc(b1-3)Gal(b1-4)[Fuc(a1-3)]GlcNAc
How it was run: as §1

[37] = molecular target: Gal(b1-4)GlcNAc(b1-3)GalNAc
How it was run: as §1

B1: SSA (Sclerotinia sclerotiorum), A7XUK7 (protein)
chain: MGFKGVGTYEIVPYQAPSLNLNAWEGKLEPGAVVRTYTRGDKPSDNAKWQVALVAGSGDSAEYLIINVHSGYFLTATKENHIVSTPQISPTDPSARWTIKPATTHQYEVFTINNKVSELGQLTVKDYSTHSGADVLSASAKTADNQKWYFDAK
glycan array binding signal (z-score) (Gal(b1-2)Gal): -0.288
glycan array binding signal (z-score) (Gal(b1-3)Gal): 0.018
glycan array binding signal (z-score) (Gal(b1-3)Gal(b1-4)GlcNAc): -0.193
glycan array binding signal (z-score) [1]: 0.038
glycan array binding signal (z-score) (Gal(b1-3)GalNAc): 0.014
glycan array binding signal (z-score) [2]: -0.365
glycan array binding signal (z-score) [3]: -0.194
glycan array binding signal (z-score) [4]: 0.772
glycan array binding signal (z-score) [5]: 0.6
glycan array binding signal (z-score) [6]: 0.293
glycan array binding signal (z-score) (Gal(b1-3)GlcNAc): -0.364
glycan array binding signal (z-score) [7]: 1.44
glycan array binding signal (z-score) [8]: 0.103
glycan array binding signal (z-score) [9]: -0.23
glycan array binding signal (z-score) [10]: -0.28
glycan array binding signal (z-score) [11]: -0.249
glycan array binding signal (z-score) [12]: -0.377
glycan array binding signal (z-score) [13]: -0.041
glycan array binding signal (z-score) [14]: -0.135
glycan array binding signal (z-score) [15]: -0.223
glycan array binding signal (z-score) [16]: -0.381
glycan array binding signal (z-score) [17]: -0.368
glycan array binding signal (z-score) [18]: -0.1
glycan array binding signal (z-score) [19]: -0.063
glycan array binding signal (z-score) [20]: -0.29
glycan array binding signal (z-score) [21]: 0.236
glycan array binding signal (z-score) [22]: -0.376
glycan array binding signal (z-score) [23]: -0.339
glycan array binding signal (z-score) (Gal(b1-4)Glc): -0.315
glycan array binding signal (z-score) (Gal(b1-4)Glc6S): -0.087
glycan array binding signal (z-score) (Gal(b1-4)GlcNAc): -0.288
glycan array binding signal (z-score) [24]: -0.414
glycan array binding signal (z-score) [25]: -0.298
glycan array binding signal (z-score) [26]: 1.41
glycan array binding signal (z-score) [27]: -0.288
glycan array binding signal (z-score) [28]: 2.12
glycan array binding signal (z-score) [29]: -0.245
glycan array binding signal (z-score) [30]: -0.176
glycan array binding signal (z-score) [31]: -0.065
glycan array binding signal (z-score) [32]: -0.189
glycan array binding signal (z-score) [33]: -0.046
glycan array binding signal (z-score) [34]: -0.038
glycan array binding signal (z-score) [35]: -0.142
glycan array binding signal (z-score) [36]: -0.107
glycan array binding signal (z-score) [37]: -0.315

Reference: the supplement of paper PMC8728848
